Tests used:
IL-4Rα = IL-4Rα (UniProt P24394 26-232, limits assumed); assay: cell-based or functional assay
IL-5 = IL-5 (human, UniProt P05113 20-134); assay: cell-based or functional assay
Chain of IL-5 (P05113 20-134 limits assumed): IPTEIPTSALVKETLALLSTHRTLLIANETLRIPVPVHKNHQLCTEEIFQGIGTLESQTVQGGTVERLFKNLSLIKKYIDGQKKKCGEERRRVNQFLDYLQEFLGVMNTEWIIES

B1: 4E9V10-2B3V2-1 (bispecific antibody, human IgG4)
chain: QVQLVESGGGLVQPGGSLRLSCAASGDFYCMAWFRQAPGKEREAVAAIRSGGRSTYYADSVKGRFTISRDNSKNTLYLQMNSLKAEDTAVYYCAVGVDGNCRNYWGQGTLVTVSS[left out - human IgG4 Fc]ESKYGPPCPSCPQVQLVESGGGSVQAGGSLRLSCAASGNTFSFSTYCMGWFRQSPGKEREGSLATIYDASTAYAGSVKGRFTISRDNSKNILYLQMNNLRAEDTAVYYCAAARYCMFWSHPSYWGQGTQVTVSS
EC50, 中和IL-13诱导的TF-1细胞增殖 (IL-4Rα): 0.215 nM | EC50, 中和IL-5诱导的TF-1细胞增殖 (IL-5): 0.175 nM
